Experimental data: patent US20250002557A1 (SUZHOU LIGHT FERRY BIOMED, published 2025)
“And” between values parts separate entries of the source, which are not always exact repeats. Equal values may be shown once.

Tests used:
[1] = target: T1, VEGF-A165 (UniProt P15692-4 27-191); test: blocking ELISA, VEGF-A 165-His to coated VEGFR2-Fc; row head prints uM, ng/ml row implies nM
T1 construct: Bought reagent
T1 sequence (looked up): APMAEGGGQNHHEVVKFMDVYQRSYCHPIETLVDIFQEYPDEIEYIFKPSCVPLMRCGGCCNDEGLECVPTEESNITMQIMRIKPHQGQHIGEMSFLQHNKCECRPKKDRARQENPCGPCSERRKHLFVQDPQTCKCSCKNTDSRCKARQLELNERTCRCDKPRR

[2] = target: T2, PDGF-BB (UniProt P01127 82-190); test: SPR, PDGF coupled to CM5 chip, trap in flow; row label printed PDGF-BR
T2 construct: Bought reagent
Source text: (§1) Nevertheless, it was found in the preliminary detection experiments that PDGF family molecules (purchased from R&D Systems Inc.) were prone to produce non-specific binding in the chip, resulting in a pseudo-elevation in measured values, such that the detection could not be completed. Therefore, PDGF-AA, PDGF-AB, PDGF-BB and PDGF-CC molecules were separately loaded through a coupling reaction on a CM5 chip, followed by influx of the recombinant receptor molecules, thus effectively eliminating the impact of non-specific binding on affinity determination.

[3] = target: T3, VEGF-D (UniProt O43915 89-205, limits assumed); test: blocking ELISA, VEGF-D-His to coated VEGFR2-Fc
T3 construct: Bought reagent
T3 sequence (looked up): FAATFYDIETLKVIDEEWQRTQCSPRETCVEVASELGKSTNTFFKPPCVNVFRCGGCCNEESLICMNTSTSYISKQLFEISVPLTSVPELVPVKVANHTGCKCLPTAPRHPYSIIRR

[4] = target: T3, VEGF-D; test: blocking ELISA, VEGF-D-His to coated VEGFR3-Fc
[5] = target: T4, VEGF-C (UniProt P49767 112-227, limits assumed); test: blocking ELISA, VEGF-C-His to coated VEGFR3-Fc; row head prints uM, ng/ml row implies nM
T4 construct: Bought reagent
T4 sequence (looked up): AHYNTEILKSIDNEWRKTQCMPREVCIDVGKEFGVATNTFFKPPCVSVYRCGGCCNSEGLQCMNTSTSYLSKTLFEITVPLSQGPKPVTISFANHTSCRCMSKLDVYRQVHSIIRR

[6] = target: T3, VEGF-D; test: blocking ELISA, VEGF-D-His to coated VEGFR2-Fc; row head prints uM, ng/ml row implies nM
[7] = target: T5, VEGF-A 121 (UniProt P15692-9 27-147); test: blocking ELISA, VEGF-A 121-His to coated VEGFR2-Fc
T5 construct: Bought reagent
T5 sequence (looked up): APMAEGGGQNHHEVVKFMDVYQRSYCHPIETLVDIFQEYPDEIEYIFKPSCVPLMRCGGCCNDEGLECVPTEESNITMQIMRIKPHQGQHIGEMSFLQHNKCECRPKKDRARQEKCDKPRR

[8] = target: T1, VEGF-A165; test: ELISA, coated VEGF-A 165, anti-human Fc-HRP
[9] = target: T4, VEGF-C; test: blocking ELISA, VEGF-C-His to coated VEGFR3-Fc
[10] = target: T5, VEGF-A 121; test: ELISA, coated VEGF-A 121, anti-human Fc-HRP
[11] = target: T1, VEGF-A165; test: blocking ELISA, VEGF-A 165-His to coated VEGFR2-Fc
[12] = target: T4, VEGF-C; test: blocking ELISA, VEGF-C-His to coated VEGFR2-Fc
[13] = target: T4, VEGF-C; test: ELISA, coated VEGF-C, anti-human Fc-HRP
[14] = target: T6, VEGF-A (isoform not given) (UniProt P15692-4 27-191, limits assumed); test: SPR Biacore T200, trap captured on Protein A chip, antigen in flow
T6 construct: May be the same reagent as VEGF-A165
T6 sequence (looked up): T1 sequence (looked up)

[15] = target: T4, VEGF-C; test: as above
[16] = target: T3, VEGF-D; test: as above
[17] = target: T7, PDGF-AB (UniProt P04085 87-211; P01127 82-190); test: SPR, PDGF coupled to CM5 chip, trap in flow
T7 construct: Bought reagent
Source text: as §1

[18] = target: T8, PDGF-CC (UniProt Q9NRA1 235-345); test: SPR, PDGF coupled to CM5 chip, trap in flow
T8 construct: Bought reagent
Source text: as §1

[19] = target: T9, PDGF-AA (UniProt P04085 87-211); test: SPR, PDGF coupled to CM5 chip, trap in flow
T9 construct: Bought reagent
Source text: as §1

T8 sequence (Q9NRA1 235-345): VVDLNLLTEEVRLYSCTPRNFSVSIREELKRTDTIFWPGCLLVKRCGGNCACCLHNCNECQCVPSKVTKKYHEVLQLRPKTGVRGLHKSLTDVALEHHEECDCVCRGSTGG

B1: LFV-E Recombinant receptor molecule (Fc fusion)
chain: GLPSVSLDLPRLSIQKDILTIKANTTLQITCRGQRDLDWLWPNNQSGSEQRVEVTECSDGLFCKTLTIPKVIGNDTGAYKCFYRETDLASVIYVYVQDYRSPFIASVSDQHGVVYITENKNKTVVIPCLGSISNLNVSLCARYPEKRFVPDGNRISWDSKKGFTIPSYMISYAGMVFCEAKINDESYQSIMYIVVVVGYRIYDVVLSPSHGIELSVGEKLVLNCTARTELNVGIDFNWEYPSSKHQHKKLVNRDLKTQSGSEMKKFLSTLTIDGVTRSDQGLYTCAASSGLMTKKNSTFVRVHEKGPG[here human IgG1 Fc without letters]
**Q.** With B1 as the binder, how does the EC50 [1] read?
**A.** Its EC50 is 9260 nM.

**Q.** What about the Kd [2] of the same binder?
**A.** Its Kd is 5.33 nM.

**Q.** What about the koff [2] of the same binder?
**A.** Its koff is 0.000311 s⁻¹.

**Q.** What about the kon [2] of the same binder?
**A.** Its kon is 58300 M⁻¹ s⁻¹.

**Q.** What about the EC50 [3] of the same binder?
**A.** Its EC50 is 0.0505 µg/mL.

**Q.** What about the EC50 [4] of the same binder?
**A.** Its EC50 is 0.179 µg/mL and 1.5 nM.

**Q.** And the EC50 [5]?
**A.** The EC50 was 1130 nM.

**Q.** And the EC50 [6]?
**A.** Its EC50 is 420 nM.

**Q.** What about the EC50 [7] of the same binder?
**A.** The EC50 was 1.28 µg/mL and 10.7 nM.

**Q.** And the EC50 [8]?
**A.** Its EC50 is 0.0212 µg/mL and 0.177 nM.

**Q.** What about the EC50 [9] of the same binder?
**A.** The EC50 was 0.136 µg/mL.

**Q.** What about the EC50 [10] of the same binder?
**A.** Its EC50 is 0.601 nM and 0.0721 µg/mL.

**Q.** And the EC50 [11]?
**A.** Its EC50 is 1.11 µg/mL.

**Q.** And the EC50 [12]?
**A.** Its EC50 is 2.27 µg/mL and 19 nM.

**Q.** And the EC50 [13]?
**A.** The EC50 was 0.71 nM and 0.0852 µg/mL.

**Q.** And the Kd [14]?
**A.** Its Kd is 0.041 nM.

**Q.** And the koff [14]?
**A.** The koff was 0.000123 s⁻¹.

**Q.** What about the kon [14] of the same binder?
**A.** Its kon is 2.99e+06 M⁻¹ s⁻¹.

**Q.** What about the Kd [15] of the same binder?
**A.** Its Kd is 0.0405 nM.

**Q.** And the koff [15]?
**A.** Its koff is 3.8e-05 s⁻¹.

**Q.** What about the kon [15] of the same binder?
**A.** The kon was 938000 M⁻¹ s⁻¹.

**Q.** What about the Kd [16] of the same binder?
**A.** The Kd was 14.8 nM.

**Q.** And the koff [16]?
**A.** The koff was 8.67e-05 s⁻¹.

**Q.** What about the kon [16] of the same binder?
**A.** The kon was 5860 M⁻¹ s⁻¹.

**Q.** What about the Kd [17] of the same binder?
**A.** Its Kd is 4.29 nM.

**Q.** And the koff [17]?
**A.** The koff was 0.000201 s⁻¹.

**Q.** What about the kon [17] of the same binder?
**A.** The kon was 46800 M⁻¹ s⁻¹.

**Q.** What about the Kd [18] of the same binder?
**A.** Its Kd is 46.1 nM.

**Q.** And the Kd [19]?
**A.** Its Kd is 0.958 nM.

**Q.** And the koff [19]?
**A.** Its koff is 0.000134 s⁻¹.

**Q.** What about the kon [19] of the same binder?
**A.** Its kon is 140000 M⁻¹ s⁻¹.
